The campaign covered roughly 420,000 compounds. About 50,000 (12%) were called active. The shares of active, inactive and inconclusive entries below differ from those in the screen. Calls follow the shape of the dose curve; as a rule, active = well fitted inhibition curve with a large enough effect; inconclusive = small, poorly fitted or top-dose-only effect; inactive = flat fitted curve, though single readings scatter. Potencies of inconclusive entries are left out as doubtful fits.
Assay: qHTS for Inhibitors of human tyrosyl-DNA phosphodiesterase 1 (TDP1): qHTS in cells in presence of CPT; also: nearly all actives have a fitted effect of over 55% in size
Conditions: chicken DT40 Tdp1-/-;hTDP1 cells + 20 nM CPT, ATP luminescence, 48 h; activity change, negative = growth inhibition: at 46.2 µM (top of the series) unless noted
Method in brief: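 Chicken DT40 Tdp1-/- cells stably complemented with human TDP1 were seeded at 400 cells/well in medium containing 20 nM camptothecin, exposed to pin-transferred compounds, and grown at 37 °C for at least 48 hr. Viability was read as ATP luminescence.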
% is scaled to controls: 0 for no effect and ±100 for the full control effect; potency is read from the fitted curve at half-maximal effect; tags tell the direction and shape of the fitted curve.

Compound | Potency | activity change, negative = growth inhibition
Cc1ccc(S(=O)(=O)C(CNC(=O)COc2ccc(Cl)cc2)c2ccco2)cc1 (stereo not drawn) | active: 23.1 µM | –
Cc1ccc(CNC(=O)c2cccc(NC(=O)N3CCSc4ncccc43)c2)cc1 | inconclusive [inhibitor, single point] | –
CCOc1ccc(-c2nnc(SCC(=O)c3ccc(F)cc3)n2-c2ccccc2)cc1 | active: 13 µM | –
C=C(C)Cn1c(SCC(=O)N/N=C/c2cccc(O)c2)nc2ccccc2c1=O | inconclusive [inhibitor, single point] | –
C/C=C\C=C/C(=O)Nc1cccc(C2=NOC3(C2)C[C@@H](C(N)=O)N(C(=O)/C=C/C=C\C)C3)c1 (stereo partly drawn) | inconclusive [inhibitor, single point] | –
CC(=O)Nc1cccc(NC(=O)CSc2nccn2Cc2ccco2)c1 | inconclusive [inhibitor, single point] | –
O=c1[nH]c2cc3c(cc2cc1C(c1nnnn1Cc1ccccc1)N1CCCCCC1)OCCO3 (stereo not drawn) | active: 16.4 µM | –
COc1ccc(NC(=S)Nc2ccc(C)c(Cl)c2)cc1OC | inactive | –
CCn1cc(/C=C(\NC(=O)c2ccccc2F)C(=O)N2CCOCC2)c2ccccc21 | inconclusive [inhibitor, single point] | –
COc1cc2c(cc1OC)C(c1ccccc1N)=NCC2 | inconclusive [inhibitor, single point] | –
COc1ccc(/C=C/C(=O)Nc2ccc(Cl)cc2Cl)cc1 | inactive | –
O=C(Cn1c(COc2ccccc2)nc2ccccc21)Nc1cc(Cl)ccc1Cl | inconclusive [inhibitor, partial curve, poor fit] | –
Cc1ncc(CN2CCCC(C(=O)Nc3ccc(-c4cccc(F)c4)cc3)C2)cn1 (stereo not drawn) | active: 14.6 µM | –
CC(=O)Nc1ccccc1OC(C)C(=O)N1CCC(C)CC1 (stereo not drawn) | inactive | –
Cc1ccc(Cn2ccnc2SCC(=O)Nc2ccc3c(c2)OCCO3)cc1 | inactive | –
COc1ccc(CCn2c(N)c(S(=O)(=O)c3cccs3)c3nc4ccccc4nc32)cc1OC | inconclusive [inhibitor, single point] | –
COc1ccc(-n2c(=O)c(C)nc3cnc(N4CCNCC4)nc32)cc1 | inactive | –
COc1ccc(C2c3c(ncn(CCN4CCOCC4)c3=N)Oc3ccc4ccccc4c32)cc1 (stereo not drawn) | inconclusive [inhibitor, single point] | –
Cc1cc(O)c(C(=O)/C=C/c2ccccc2Br)c(=O)o1 | inconclusive [inhibitor, single point] | –
Cc1ccccc1CNC(=O)c1cc2cccc3c2n1CC(C)S3 (stereo not drawn) | inconclusive [inhibitor, single point] | –
CCOc1ccc(CN(C)C(=O)c2cc(S(=O)(=O)N3CCCC3)ccc2C)cc1 | inconclusive [inhibitor, single point] | –
COc1ccc(N2CCN(C(=O)CC(NC(N)=O)c3cccc(Oc4ccccc4)c3)CC2)cc1 (stereo not drawn) | inconclusive [inhibitor, single point] | –
NS(=O)(=O)c1ccc(NC(=O)CSc2ncnc3ccccc23)cc1 | inconclusive [inhibitor, single point] | –
CCOc1cc(C2CC(=O)Nc3c2c(=O)nc(SCc2cccc(Cl)c2)n3C)ccc1O (stereo not drawn) | inconclusive [inhibitor, partial curve] | –
O=C(Nc1cccc(Cl)c1)c1cc(S(=O)(=O)N2CCCc3ccccc32)ccc1F | active: 10.3 µM | –

Compound | Potency | activity change, negative = growth inhibition
O=C(O)c1ccc(C(=O)Nc2ccc(F)cc2)cc1 | inactive | –
CCSc1nc2c(c(=O)[nH]1)C(C(C)C)C(C#N)=C(N)O2 (stereo not drawn) | inconclusive [inhibitor, single point] | –
O=C(COC(=O)CNC(=O)c1ccc([N+](=O)[O-])o1)Nc1ncc(C(F)(F)F)cc1Cl | inactive | –
Cc1ccc(NC(=O)Cn2cc(C(=O)c3ccco3)c3ccccc32)c(C)c1 | inconclusive [inhibitor, partial curve, poor fit] | –
CC(C)(C)c1nc(SCC(=O)NCc2ccco2)c2ccccc2n1 | inconclusive [inhibitor, partial curve, poor fit] | –
CC(C)Oc1ccc(C2NC(=O)c3ccccc3O2)cc1 (stereo not drawn) | inactive | –
CN(C(=O)c1cccc(NC(=O)Cc2ccc(NC(=O)C3CCN(C(=O)C4CCCC4)CC3)cc2)c1)C1CCCC1 | inconclusive [inhibitor, single point] | –
O=C1NC(=S)N/C1=C/c1ccc2ccccc2c1 | inactive | –
COc1ccc(CCNC(=O)CCCOc2cccc(C)c2C)cc1OC | inconclusive [inhibitor, single point] | –
O=C(NCC1CCCO1)c1cc(-c2ccccc2)on1 (stereo not drawn) | inconclusive [inhibitor, partial curve, poor fit] | –
C[C@@H]1CCCCO[C@H](CN(C)S(=O)(=O)c2cccs2)[C@@H](C)CN([C@H](C)CO)C(=O)c2cc(NC(=O)C3CCCCC3)ccc2O1 | active: 18.4 µM | –
NS(=O)(=O)c1ccc(N2CCOCC2)c(C(=O)NCCCSc2ccccc2)c1 | inconclusive [inhibitor, partial curve] | –
CCOc1ccccc1OCCC(=O)Nc1ccc2c(c1)OCO2 | inconclusive [inhibitor, single point] | –
O=c1oc2ccccc2cc1NCc1ccccc1O | inconclusive [inhibitor, single point] | –
CCOc1ccc(Nc2cc(C)nc3ccc(C)cc23)cc1 | active: 23.1 µM | –
NC(=O)C1CCN(Cc2nc(-c3cccs3)no2)CC1 | inactive | –
CCCCCCn1nc(C(=O)N(CCCC)c2c(N)n(CCC)c(=O)[nH]c2=O)c2ccccc2c1=O | inactive | –
CCOC(=O)CSc1nnc(-c2cccc(Br)c2)o1 | inactive | –
Fc1ccccc1N1CCN(c2ncnc3onc(-c4cccc(Cl)c4)c23)CC1 | inconclusive [inhibitor, single point] | –
Cc1nc2c(cnn2-c2ccccc2)c(=O)[nH]1 | inactive | –
c1ccc(CCCCc2ccncc2)cc1 | inactive | –
CCN1C(Nc2ccccc2)=NC[C@@H]1CC(C)C | inactive | –
c1ccc(COc2ccccc2CNCc2cccnc2)cc1 | inconclusive [inhibitor, partial curve] | –
COc1cccc(OCc2cc(=O)n3cc(C)sc3n2)c1 | inactive | –
CC(=O)NC(CC(=O)OCC(=O)c1cc(C)ccc1C)c1ccccc1 (stereo not drawn) | inconclusive [inhibitor, single point] | –

Compound | Potency | activity change, negative = growth inhibition
Cc1ccc(NC(=O)CCCN2C(=O)C(c3ccccc3)Oc3cccnc32)c(C)c1 (stereo not drawn) | – | inconclusive: -33.9% [inhibitor]
CC1=C(C#N)c2nc(N)c(C#N)c(C)c2/C1=C\c1ccc(OCC(=O)O)c(Cl)c1 | inactive | –
Cc1cc2c(c(=O)n1Cc1ccccn1)C(c1ccc3c(c1)OCO3)C(C#N)=C(N)O2 (stereo not drawn) | inactive | –
Cc1cc(C)n(-c2nc(C)nc3c2cnn3-c2ccccc2)n1 | inactive | –
CC(=O)Nc1ccc(NC(=O)c2nc(SCc3ccccc3C)ncc2Cl)cc1 | inactive | –
COC(=O)[C@]1(C)N[C@H](c2ccc(-c3cccc(Cl)c3)cc2)[C@@H]2C(=O)N(C)C(=O)[C@@H]21 | inconclusive [inhibitor, single point] | –
Cc1ccc(NC(=O)CCc2nnc3ccc(NCc4ccco4)nn23)cc1F | inconclusive [inhibitor, partial curve] | –
C=CCOc1ccc(/C=C2\SC(N)=NC2=O)cc1OC | inconclusive [inhibitor, single point] | –
Cn1c(=O)c2c(-c3ccccc3Br)n(Cc3ccccc3)cc2n(C)c1=O | active: 20.6 µM | –
NS(=O)(=O)c1ccc(NC(=O)CN2CCN(c3ccc(F)cc3)CC2)cc1 | inactive | –
Cc1ccc2nc(-c3cccc(Cl)c3)c(Cc3cccc(F)c3)n2c1 | inconclusive [inhibitor, single point] | –
Cc1cccn2c(=O)cc(COc3ccc(NC(=O)C(C)Oc4ccccc4)cc3)nc12 (stereo not drawn) | inconclusive [inhibitor, single point] | –
COc1ccc(CN(C)C(=O)CNC(=O)c2sc3ccccc3c2Cl)c(OC)c1OC | inconclusive [inhibitor, single point] | –
CC1(C)NC(=O)N(CC(=O)Nc2ccc(-c3ccccc3)cc2)C1=O | inactive | –
CCCCNC(=O)c1cc(-c2ccc(Cl)c(Cl)c2)on1 | – | inconclusive: -31.3% [inhibitor]
COc1ccc(N(CC(=O)Nc2cc(C)ccc2C)S(=O)(=O)c2c(C)nn(C)c2C)cc1 | inconclusive [inhibitor, single point] | –
CC(=O)c1sc(NC(=O)COc2ccc(C(C)C)c(C)c2)nc1C | – | inconclusive: -34.8% [inhibitor]
N#CC(C(=O)c1ccc(S(=O)(=O)N2CCCCCC2)cc1)c1nc2ccccc2[nH]1 (stereo not drawn) | inconclusive [inhibitor, partial curve] | –
Cc1ccc(Cl)cc1-n1ncc2c(NCCC3=CCCCC3)ncnc21 | active: 16.4 µM | –
Cc1ccc(SCc2cc(=O)[nH]c(Nc3nc(C)c4cccc(C)c4n3)n2)cc1 | inconclusive [inhibitor, single point] | –
CCOc1ccc(CN2CCSCC2)cc1 | inactive | –
CC(=O)N1CCC(N(CCN2CCOCC2)C(=S)Nc2cccc(C)c2)CC1 | inactive | –
S=C(c1ccc(-c2cc(Cl)ccc2Cl)o1)N1CCCCC1 | inconclusive [inhibitor, single point] | –
